# Experimental data from the supplement of paper PMC8728848.
# The list shows a part of the results.
# B1: Gal 9 (Canis lupus) (protein)
# chain: MAFSSSQPPYLSPGVPFSGKIQGGLQDGLKITINGTILYCNGTRFAVNFHSGHSDSDIAFHFNPRFEEGGYVVCNTKQKGSWGSEERKMQMPFQMGNPFELCFMVNSCDFKVTVNGSHFTQYSHRVPFHYVDTLSITGAVQLSYISFQSPGVWQSSSAPITQTVIHTVQTTPGQPFPNPIIPPTAYPTPTYPMPFFTSIPGGLYPSKSIIVSGTVLPGAKRFHINLRSGNDIAFHLNPRFNENTVVRNMQINNSWGSEERSLPRKMPFVQGQSFSVWIMCEGHCFKVAVDGEHLFEYYHRLKNLLAINNMEVAGDVQLTHVQT
# How the values were obtained:
# Assay in all cases: glycan array binding signal (z-score within array); higher = stronger binding
# Details in all cases: glycan notation: IUPAC condensed, linker removed
# [1] = biological target: Gal(b1-3)GlcNAc(a1-6)Gal(b1-4)GlcNAc
# In short: (§1)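 The binding signal is a Z-score computed within each array and averaged over linkers. Arrays of the same protein sequence at different concentrations or buffers were also averaged together. Data originate from 3228 arrays in the Consortium for Functional Glycomics database, kept only where the protein sequence was available.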
# [2] = biological target: Gal(b1-3)GlcNAc(b1-2)Man(a1-3)[Gal(b1-3)GlcNAc(b1-2)Man(a1-6)]Man(b1-4)GlcNAc(b1-4)GlcNAc
# In short: as §1
# [3] = biological target: Gal(b1-3)GlcNAc(b1-2)Man(a1-3)[Gal(b1-3)GlcNAc(b1-2)Man(a1-6)]Man(b1-4)GlcNAc(b1-4)[Fuc(a1-6)]GlcNAc
# In short: as §1
# [4] = biological target: Gal(b1-3)GlcNAc(b1-2)[Gal(b1-3)GlcNAc(b1-6)]Man(a1-6)[Gal(b1-3)GlcNAc(b1-2)Man(a1-3)]Man(b1-4)GlcNAc(b1-4)GlcNAc
# In short: as §1
# [5] = biological target: Gal(b1-3)GlcNAc(b1-3)Gal(b1-3)GlcNAc
# In short: as §1
# [6] = biological target: Gal(b1-3)GlcNAc(b1-3)Gal(b1-4)Glc
# In short: as §1
# [7] = biological target: Gal(b1-3)GlcNAc(b1-3)Gal(b1-4)GlcNAc
# In short: as §1
# [8] = biological target: Gal(b1-3)GlcNAc(b1-3)Gal(b1-4)GlcNAc(b1-6)[Gal(b1-3)GlcNAc(b1-3)]Gal(b1-4)Glc
# In short: as §1
# [9] = biological target: Gal(b1-3)GlcNAc(b1-3)Gal(b1-4)[Fuc(a1-3)]GlcNAc(b1-6)[Gal(b1-3)GlcNAc(b1-3)]Gal(b1-4)Glc
# In short: as §1
# [10] = biological target: Gal(b1-3)GlcNAc(b1-3)GalNAc
# In short: as §1
# [11] = biological target: Gal(b1-3)GlcNAc(b1-6)Gal(b1-4)GlcNAc
# In short: as §1
# [12] = biological target: Gal(b1-3)[Fuc(a1-4)]GlcNAc
# In short: as §1
# [13] = biological target: Gal(b1-3)[Fuc(a1-4)]GlcNAc(b1-2)Man(a1-3)[Gal(b1-3)[Fuc(a1-4)]GlcNAc(b1-2)Man(a1-6)]Man(b1-4)GlcNAc(b1-4)GlcNAc
# In short: as §1
# [14] = biological target: Gal(b1-3)[Fuc(a1-4)]GlcNAc(b1-2)Man(a1-3)[Gal(b1-3)[Fuc(a1-4)]GlcNAc(b1-2)Man(a1-6)]Man(b1-4)GlcNAc(b1-4)[Fuc(a1-6)]GlcNAc
# In short: as §1
# [15] = biological target: Gal(b1-3)[Fuc(a1-4)]GlcNAc(b1-3)Gal(b1-3)[Fuc(a1-4)]GlcNAc
# In short: as §1
# [16] = biological target: Gal(b1-3)[Fuc(a1-4)]GlcNAc(b1-3)Gal(b1-4)GlcNAc
# In short: as §1
# [17] = biological target: Gal(b1-3)[Fuc(a1-4)]GlcNAc(b1-3)Gal(b1-4)[Fuc(a1-3)]GlcNAc
# In short: as §1
# [18] = biological target: Gal(b1-3)[GlcNAc(b1-6)]GalNAc
# In short: as §1
# [19] = biological target: Gal(b1-3)[Neu5Ac(a2-6)]GalNAc
# In short: as §1
# [20] = biological target: Gal(b1-3)[Neu5Ac(a2-6)]GlcNAc(b1-6)Gal(b1-4)Glc
# In short: as §1
# [21] = biological target: Gal(b1-3)[Neu5Ac(b2-6)]GalNAc
# In short: as §1
# [22] = biological target: Gal(b1-4)Gal
# In short: as §1
# [23] = biological target: Gal(b1-4)GalNAc(a1-3)[Fuc(a1-2)]Gal(b1-4)GlcNAc
# In short: as §1
# [24] = biological target: Gal(b1-4)GalNAc(b1-3)[Fuc(a1-2)]Gal(b1-4)GlcNAc
# In short: as §1
# [25] = biological target: Gal(b1-4)Glc
# In short: as §1
# [26] = biological target: Gal(b1-4)Glc6S
# In short: as §1
# [27] = biological target: Gal(b1-4)GlcNAc
# In short: as §1
# [28] = biological target: Gal(b1-4)GlcNAc(a1-6)Gal(b1-4)GlcNAc
# In short: as §1
# [29] = biological target: Gal(b1-4)GlcNAc(b1-2)Man
# In short: as §1
# [30] = biological target: Gal(b1-4)GlcNAc(b1-2)Man(a1-3)Man(b1-4)GlcNAc(b1-4)GlcNAc
# In short: as §1
# [31] = biological target: Gal(b1-4)GlcNAc(b1-2)Man(a1-3)[Gal(b1-4)GlcNAc(b1-2)Man(a1-6)]Man(b1-4)GlcNAc(b1-4)GlcNAc
# In short: as §1
# [32] = biological target: Gal(b1-4)GlcNAc(b1-2)Man(a1-3)[Gal(b1-4)GlcNAc(b1-2)Man(a1-6)]Man(b1-4)GlcNAc(b1-4)[Fuc(a1-6)]GlcNAc
# In short: as §1
# [33] = biological target: Gal(b1-4)GlcNAc(b1-2)Man(a1-3)[Gal(b1-4)GlcNAc(b1-2)][GlcNAc(b1-4)]Man(b1-4)GlcNAc(b1-4)GlcNAc
# In short: as §1
# [34] = biological target: Gal(b1-4)GlcNAc(b1-2)Man(a1-3)[GlcNAc(b1-2)Man(a1-6)]Man(b1-4)GlcNAc(b1-4)GlcNAc
# In short: as §1
# [35] = biological target: Gal(b1-4)GlcNAc(b1-2)Man(a1-3)[Man(a1-6)]Man(b1-4)GlcNAc(b1-4)GlcNAc
# In short: as §1
# [36] = biological target: Gal(b1-4)GlcNAc(b1-2)Man(a1-6)Man(b1-4)GlcNAc(b1-4)GlcNAc
# In short: as §1
# [37] = biological target: Gal(b1-4)GlcNAc(b1-2)Man(a1-6)[GlcNAc(b1-2)Man(a1-3)]Man(b1-4)GlcNAc(b1-4)GlcNAc
# In short: as §1
binder,measurement,setting,value
B1,glycan array binding signal (z-score),[1],-0.338
same,glycan array binding signal (z-score),[2],0.27
same,glycan array binding signal (z-score),[3],0.233
same,glycan array binding signal (z-score),[4],0.096
same,glycan array binding signal (z-score),[5],0.134
same,glycan array binding signal (z-score),[6],0.293
same,glycan array binding signal (z-score),[7],-0.001
same,glycan array binding signal (z-score),[8],0.153
same,glycan array binding signal (z-score),[9],0.143
same,glycan array binding signal (z-score),[10],0.034
same,glycan array binding signal (z-score),[11],-0.048
same,glycan array binding signal (z-score),[12],-0.336
same,glycan array binding signal (z-score),[13],-0.231
same,glycan array binding signal (z-score),[14],-0.287
same,glycan array binding signal (z-score),[15],-0.315
same,glycan array binding signal (z-score),[16],0.391
same,glycan array binding signal (z-score),[17],-0.336
same,glycan array binding signal (z-score),[18],0.285
same,glycan array binding signal (z-score),[19],-0.199
same,glycan array binding signal (z-score),[20],0.09
same,glycan array binding signal (z-score),[21],-0.334
same,glycan array binding signal (z-score),[22],-0.328
same,glycan array binding signal (z-score),[23],1.11
same,glycan array binding signal (z-score),[24],-0.339
same,glycan array binding signal (z-score),[25],-0.213
same,glycan array binding signal (z-score),[26],0.154
same,glycan array binding signal (z-score),[27],-0.3
same,glycan array binding signal (z-score),[28],0.381
same,glycan array binding signal (z-score),[29],0.016
same,glycan array binding signal (z-score),[30],0.09
same,glycan array binding signal (z-score),[31],0.105
same,glycan array binding signal (z-score),[32],0.194
same,glycan array binding signal (z-score),[33],-0.022
same,glycan array binding signal (z-score),[34],0.169
same,glycan array binding signal (z-score),[35],0.089
same,glycan array binding signal (z-score),[36],0.23
same,glycan array binding signal (z-score),[37],0.132
